“Also recorded” adds a separate entry of the source.
B1: D-1K21: human anti-CXCR4 antibody; scFv SEQ ID NO: 68; IgG1/kappa heavy chain SEQ ID NO: 120, light chain SEQ ID NO: 121 (antibody)
heavy: [about 100 residues left out]RNLIAARPRNRGRDAFDIWGQGTMVTVSS[human IgG1 constant region left out]
light: DIQMTQSPSTLSASVGDRVTITCRASQSIGGSLAWYQQKPGKGPNLLIYAASTLQSGVPSRFSGSGSGTEFTLTISSLQPEDSATYYCQHYESYPLSFGGGTKLEIKRTVAAPSVFIFPPSDEQLKSGTASVVCLLNNFYPREAKVQWKVDNALQSGNSQESVTEQDSKDSTYSLSSTLTLSKADYEKHKVYACEVTHQGLSSPVTKSFNRGEC
modifications: antibody sequence
B2: C-9P21: human anti-CXCR4 antibody; scFv SEQ ID NO: 35; IgG1/kappa heavy chain SEQ ID NO: 108, light chain SEQ ID NO: 109 (antibody)
heavy: QVQLQESGGGLVHPGGSLRLSCAASGFTFSSYWMHWVRQAPGKGLVWVSRINSDGSSTSYADSVKGRFTISRDNAKNTLYLQMNSLRAEDTAVYYCARKILGVGARSRRYFDYWGQGTMVTVSS[human IgG1 constant region left out]
light: ETTLTQSPGTLSLSPGERATLSCRASQSVVSNYLAWYQQKPGQAPRLLISGASNRATGISDRFSGSGSGADFTLTISRVEPEDSAVYYCQQFDKSTWTFGQGTKVEIKRTVAAPSVFIFPPSDEQLKSGTASVVCLLNNFYPREAKVQWKVDNALQSGNSQESVTEQDSKDSTYSLSSTLTLSKADYEKHKVYACEVTHQGLSSPVTKSFNRGEC
modifications: antibody sequence

Assays:
[1] = biological target: T1, monkey (Macaca mulatta) CXCR4 (Macaca mulatta, UniProt P79394); assay: Species cross reactivity: binding to HEK-293 cells transiently expressing monkey CXCR4; details: scFv level, transiently transfected HEK-293 cells
T1 construct: expressed in transfected cells; host or cells: HEK-293 (HEK293T/17), transient transfection with Fugene
T1 sequence (P79394 whole entry): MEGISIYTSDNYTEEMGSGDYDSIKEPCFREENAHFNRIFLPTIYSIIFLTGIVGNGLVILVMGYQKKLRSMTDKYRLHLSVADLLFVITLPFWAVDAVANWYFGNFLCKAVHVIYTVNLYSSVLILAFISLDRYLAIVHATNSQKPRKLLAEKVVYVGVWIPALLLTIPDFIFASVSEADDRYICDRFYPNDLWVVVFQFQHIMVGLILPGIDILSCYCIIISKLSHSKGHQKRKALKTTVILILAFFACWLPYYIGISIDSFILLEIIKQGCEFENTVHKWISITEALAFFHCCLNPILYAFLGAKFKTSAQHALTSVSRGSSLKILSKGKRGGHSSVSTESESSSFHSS
Method: The antibody candidates were tested on scFv level for their ability to cross-react with CXCR4 from monkey and mouse.
HEK293T/17 cells were maintained as described above.
FACS-binding analyses (EasyCyte) were performed using HEK-293 cells transiently transfected with plasmids encoding either, mouse (Gene bank accession number BC031665) or monkey (Macaca mulatta) CXCR4 (NCBI Accession number NP_001036110). Two experiments were performed, one using α-cMyc and PE-labelled goat anti-mouse IgG antibody, the second using a directly conjugated RPE-c-Myc antibody for detection. In addition, cross-reactivity on IgG level was analysed. In the latter case, antibody binding was detected with PE-conjugated goat anti-human IgG antibody.

Ramos cells = assay: Complement dependent cytotoxicity (CDC) in presence of human serum, calcein-AM release; format: cell-based; details: IgG
Method: To test whether the anti-CXCR41 IgGs described herein are able to mediate complement dependent cytotoxicity, CDC experiments have been performed using Ramos cells which are derived from Burkitt's B-cell lymphoma and have constitutive expression of CXCR4.
Ramos cells were maintained as described above.
The Ramos cells, were sedimented by centrifugation and washed twice in RPMI-1640 culture medium. 2.5×10^6 cells/ml was mixed with calcein-AM (Invitrogen) to a final concentration of 10 μM and then incubated at 37° C. for 30 min. The cells were washed three times in RPMI-1640 with 10% FCS and the cell density was adjusted to 4×10^6 cells/mL. A 25 μl aliquot of labelled target cells and 25 μl of human serum were mixed in the wells in a 96-well microtiter plate. Dilutions of the antibodies (all in IgG format) were added to the same wells in 50 μl volume thus resulting in a final antibody concentration ranging from 5×10^−5 to 5×10^4 ng/ml. Twenty μl 0.9% Triton-X100 was added to control wells to achieve complete lysis of the target cells (maximal lysis defining 100%). The microtiter plate was incubated for 1 hr at 37° C. […] The fluorescence (excitation at 488 nm, emission at 518 nm) was recorded using a TECAN M200 plate reader. […] The fluorescence intensity of the samples without antibodies was subtracted as a background and the percentage of specific lysis in samples with antibodies was calculated. […]

CCRF-CEM cells = assay: Antibody dependent cellular cytotoxicity (ADCC) with human PBMCs, calcein-AM release; format: cell-based; details: for EC50 (ng/mL) scFv / Max killing (%) scFv / EC50: scFv cross-linked with anti-cMyc IgG1, CCRF-CEM, human PBMCs E:T 20:1; for Max killing (%) scFv: 4 hrs; for EC50: read-out: EC50 scFv, molar value in brackets
Method: One potential mechanism by which an antibody can be therapeutically useful is the ability to mediate ADCC of CXCR4 expressing target cells, if killing the target cell is the preferred mode of action. This was tested using CCRF-CEM cells which are derived from T cell lymphoma and have constitutive expression of CXCR4. The selected antibodies were tested both as scFv fragments cross-linked with anti-cMyc antibody and as fully human IgG1 antibodies.
CCRF-CEM cells were maintained as described above.
CCRF-CEM target cells, were sedimented by centrifugation and washed twice in RPMI-1640 medium. 2.5×10^6 cells/ml was mixed with calcein-AM (Invitrogen) to a final concentration of 10 μM and incubated at 37° C. for 30 min. The cells were washed three times in RPMI-1640 medium supplemented with 10% FCS and the cell density was adjusted to 3×10^5 cells/ml. Human PBMCs were prepared from fresh donor blood by Lymphoprep (Axis-Shield, Liverpool, UK) density gradient centrifugation, washed in RPMI-1640/10% FCS and stored frozen in RPMI with 10% FCS and 10% DMSO at density 3×10^7 cells/ml in liquid nitrogen. The effector cells were thawed on day of the experiment, washed in RPMI with 10% FCS and resuspended at density 6×10^6 cells/ml. Fifty μl of each target and effector cells were mixed in the same wells of a 96-well microtiter plate thus providing an effector-to-target (E:T) cell ratio of 20:1. The antibodies in IgG1 format were added to the same wells in a volume of 100 μl resulting in a concentration range of 0.8 to 1000 ng/ml. Accordingly, the scFv fragments were added in 20 μl volume for final concentrations from 2.5 to 5×10^4 ng/ml, after having before being pre-mixed with an excess (20 μg/ml) of anti-cMyc chimeric (mouse variable/human constant) IgG1 antibody (derived from hybridoma 9E10). The microtiter plate was incubated for 4 hrs at 37° C. After 3 hrs and 45 min incubation, 20 μl 0.9% Triton-X100 was added to control wells to achieve complete lysis of the target cells (maximal lysis). 100 μl supernatant of each sample was then transferred into a black microtiter plate and the fluorescence (excitation at 488 nm, emission at 518 nm) was recorded using a TECAN M200 plate reader. Each experiment was carried out in quadruplicates. The fluorescence intensity of the samples without antibodies was subtracted as a background and the percentage of specific lysis in samples with antibodies was calculated. The dose-response curves were computed by nonlinear regression analysis and a three-parameter fit model using Prism software (GraphPad).

Molecule | cross-reactivity with monkey CXCR4 [1] | cross-reactivity with monkey CXCR4 ([1]; listed as D1K21) | CDC activity against Ramos cells (words) (Ramos cells) | EC50 (ng/mL) scFv (CCRF-CEM cells) [ng/mL] | Max killing (%) scFv (CCRF-CEM cells) [%] | EC50 (CCRF-CEM cells) [nM] | ADCC activity against CCRF-CEM cells (CCRF-CEM cells; scFv and IgG, human PBMCs)
B1 | good cross-reactivity | bind to both human CXCR4 and monkey CXCR4 | do not induce CDC | 18.8 | 68.6 | 0.7 | –
B2 | bind to both human CXCR4 and monkey CXCR4; also recorded: good cross-reactivity | – | do not induce CDC | 2.7 | 96.4 | 0.09 | greatest maximum cell killing
